Consider 153 variants from a collection of fitness landscapes (doi:10.1016/j.celrep.2020.107928).

The full ranking holds about 81,000 sequences; the median of “one-hybrid fitness for binding parS DNA” is about -0.17, and the highest 2% start at about 0.51. Some of the results follow. Bounds are passed on as bounds.

The chains are these.
B1: Caulobacter ParB omega fusion; a variant is named by its letters at X, in order, B8GW30 (parent)
chain: MESVVVGEPGMSEGRRGLGRGLSALLGEVDAAPAQAPGEQLGGSREAPIEILQRNPDQPRRTFREEDLEDLSNSIREKGVLQPILVRPSPDTAGEYQIVAGERAWRAAQRAGLKTVPIMVRELDDLAVLEIGIIENVQRADLNVLEEALSYKVLMEKFERTQENIAQTIGKSXSHVANXMRLLXLPDEVQSYLVSGELTAXHARAIAAAADPVALAKQIIEGGLSVRETEALARKAPNLSAGKSKGGRPPRVKDTDTQALESDLSSVLGLDVSIDHRGSTGTLTITYATLEQLDDLCNRLTRGI

This assay covers variants of B1. The assay can be described thus: one-hybrid fitness for binding parS DNA (scaled: cognate 1, non-cognate 0); higher = stronger binding. The conditions noted are these: with parS DNA site. In a few lines: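 Selection: bacterial one-hybrid in E. coli USO, HIS3 reporter with the site 19 bp from the promoter, 48 hours at 37°C on M9-minus-histidine plus 0.1 mM IPTG and 5 mM 3-AT. Libraries were Caulobacter ParB with four randomised specificity codons, sequenced on Illumina before and after selection. Fitness is the rescaled log change in variant-to-wild-type read ratio, anchored to the cognate and non-cognate sites.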
Take LKPP: the “one-hybrid fitness for binding parS DNA” value was no more than 0.2.

Regarding RESD, the “one-hybrid fitness for binding parS DNA” value was no more than 0.2.

HNTT: the “one-hybrid fitness for binding parS DNA” value is no more than 0.2.

FDRT: the “one-hybrid fitness for binding parS DNA” value is no more than 0.2.

As for HRQD, the “one-hybrid fitness for binding parS DNA” value was no more than 0.2.

For YPHG, the “one-hybrid fitness for binding parS DNA” value is no more than 0.2.

Take AMPR: the “one-hybrid fitness for binding parS DNA” value is no more than 0.2.

Take PRPE: the “one-hybrid fitness for binding parS DNA” value was no more than 0.2.

For QDNA, the “one-hybrid fitness for binding parS DNA” value was no more than 0.2.

For the variant RACR, the “one-hybrid fitness for binding parS DNA” value was no more than 0.2.

Take TSKR: the “one-hybrid fitness for binding parS DNA” value is no more than 0.2.

As to FLAG, the “one-hybrid fitness for binding parS DNA” value is no more than 0.2.

Regarding NPMK, the “one-hybrid fitness for binding parS DNA” value is no more than 0.2.

On to WDCC, for which the “one-hybrid fitness for binding parS DNA” value was no more than 0.2.

Take HFWS: the “one-hybrid fitness for binding parS DNA” value is no more than 0.2.

In the case of GHDS, the “one-hybrid fitness for binding parS DNA” value is no more than 0.2.

Take STQS: the “one-hybrid fitness for binding parS DNA” value was no more than 0.2.

Regarding QPNS, the “one-hybrid fitness for binding parS DNA” value is no more than 0.2.

For the variant NTRN, the “one-hybrid fitness for binding parS DNA” value is no more than 0.2.

As to DTMI, the “one-hybrid fitness for binding parS DNA” value was no more than 0.2.

Take RLMQ: the “one-hybrid fitness for binding parS DNA” value is no more than 0.2.

Consider ELQY, for which the “one-hybrid fitness for binding parS DNA” value was no more than 0.2.

For the variant PCED, the “one-hybrid fitness for binding parS DNA” value is no more than 0.2.

As to QPKK, the “one-hybrid fitness for binding parS DNA” value was no more than 0.2.

On to AEAC, for which the “one-hybrid fitness for binding parS DNA” value was no more than 0.2.

In the case of TDHC, the “one-hybrid fitness for binding parS DNA” value is no more than 0.2.

On to KDPW, for which the “one-hybrid fitness for binding parS DNA” value was no more than 0.2.

SSMF: the “one-hybrid fitness for binding parS DNA” value is no more than 0.2.

On to SGIT, for which the “one-hybrid fitness for binding parS DNA” value was no more than 0.2.

Regarding RDDV, the “one-hybrid fitness for binding parS DNA” value was no more than 0.2.

RCIT: the “one-hybrid fitness for binding parS DNA” value came to 0.78.

As to HDSY, the “one-hybrid fitness for binding parS DNA” value is no more than 0.2.

As for LWAA, the “one-hybrid fitness for binding parS DNA” value was no more than 0.2.

As for DCCR, the “one-hybrid fitness for binding parS DNA” value was no more than 0.2.

As to EGPA, the “one-hybrid fitness for binding parS DNA” value was no more than 0.2.

In the case of RQPR, the “one-hybrid fitness for binding parS DNA” value was no more than 0.2.

In the case of ASSS, the “one-hybrid fitness for binding parS DNA” value is no more than 0.2.

Regarding LMLY, the “one-hybrid fitness for binding parS DNA” value is no more than 0.2.

Take LAML: the “one-hybrid fitness for binding parS DNA” value was no more than 0.2.

Turning to NCTS, the “one-hybrid fitness for binding parS DNA” value is no more than 0.2.

Regarding NGTR, the “one-hybrid fitness for binding parS DNA” value was no more than 0.2.

Consider DASN, for which the “one-hybrid fitness for binding parS DNA” value was no more than 0.2.

For the variant SMAC, the “one-hybrid fitness for binding parS DNA” value is no more than 0.2.

Consider TTDG, for which the “one-hybrid fitness for binding parS DNA” value was no more than 0.2.

On to DAVY, for which the “one-hybrid fitness for binding parS DNA” value is no more than 0.2.

PPWS: the “one-hybrid fitness for binding parS DNA” value was no more than 0.2.

Take FGIT: the “one-hybrid fitness for binding parS DNA” value was no more than 0.2.

For the variant WFPC, the “one-hybrid fitness for binding parS DNA” value was no more than 0.2.

Take RTRA: the “one-hybrid fitness for binding parS DNA” value amounted to 0.794.

TKQC: the “one-hybrid fitness for binding parS DNA” value was no more than 0.2.

Consider GNKS, for which the “one-hybrid fitness for binding parS DNA” value is no more than 0.2.

As to TTYL, the “one-hybrid fitness for binding parS DNA” value was no more than 0.2.

Turning to PSRI, the “one-hybrid fitness for binding parS DNA” value was no more than 0.2.

Take IRKG: the “one-hybrid fitness for binding parS DNA” value is no more than 0.2.

Take RLEM: the “one-hybrid fitness for binding parS DNA” value was determined as 0.301.

Regarding RKWN, the “one-hybrid fitness for binding parS DNA” value was 0.364.

As for TLGM, the “one-hybrid fitness for binding parS DNA” value is no more than 0.2.

Consider WSQL, for which the “one-hybrid fitness for binding parS DNA” value was no more than 0.2.

With PRVC, the “one-hybrid fitness for binding parS DNA” value was no more than 0.2.

As for PTNM, the “one-hybrid fitness for binding parS DNA” value is no more than 0.2.

With RVGM, the “one-hybrid fitness for binding parS DNA” value was 0.306.

As to PVVR, the “one-hybrid fitness for binding parS DNA” value was no more than 0.2.

SCPH: the “one-hybrid fitness for binding parS DNA” value was no more than 0.2.

For the variant EMAL, the “one-hybrid fitness for binding parS DNA” value was no more than 0.2.

For PDYF, the “one-hybrid fitness for binding parS DNA” value was no more than 0.2.

As to HTSG, the “one-hybrid fitness for binding parS DNA” value was no more than 0.2.

As to TCDG, the “one-hybrid fitness for binding parS DNA” value was no more than 0.2.

As to QSWH, the “one-hybrid fitness for binding parS DNA” value was no more than 0.2.

Take TSSY: the “one-hybrid fitness for binding parS DNA” value was no more than 0.2.

KDPR: the “one-hybrid fitness for binding parS DNA” value is no more than 0.2.

Turning to RASW, the “one-hybrid fitness for binding parS DNA” value turned out to be 0.21.

As to RMNG, the “one-hybrid fitness for binding parS DNA” value was 0.999.

For the variant SNGC, the “one-hybrid fitness for binding parS DNA” value was no more than 0.2.

As for PAYT, the “one-hybrid fitness for binding parS DNA” value is no more than 0.2.

Turning to FGYW, the “one-hybrid fitness for binding parS DNA” value is no more than 0.2.

For VYNR, the “one-hybrid fitness for binding parS DNA” value was no more than 0.2.

Consider AYWR, for which the “one-hybrid fitness for binding parS DNA” value was no more than 0.2.

With RQAV, the “one-hybrid fitness for binding parS DNA” value was no more than 0.2.

Take HPLI: the “one-hybrid fitness for binding parS DNA” value is no more than 0.2.

Turning to NQHI, the “one-hybrid fitness for binding parS DNA” value was no more than 0.2.

For the variant TYQR, the “one-hybrid fitness for binding parS DNA” value is no more than 0.2.

With VQNE, the “one-hybrid fitness for binding parS DNA” value was no more than 0.2.

Take SGEK: the “one-hybrid fitness for binding parS DNA” value was no more than 0.2.

Turning to ETRV, the “one-hybrid fitness for binding parS DNA” value is no more than 0.2.

As for TLRR, the “one-hybrid fitness for binding parS DNA” value was no more than 0.2.

For NDVY, the “one-hybrid fitness for binding parS DNA” value is no more than 0.2.

Consider WASL, for which the “one-hybrid fitness for binding parS DNA” value was no more than 0.2.

In the case of NHKP, the “one-hybrid fitness for binding parS DNA” value is no more than 0.2.

Take AQQC: the “one-hybrid fitness for binding parS DNA” value is no more than 0.2.

As to VTET, the “one-hybrid fitness for binding parS DNA” value was no more than 0.2.

As to PFTG, the “one-hybrid fitness for binding parS DNA” value was no more than 0.2.

On to QPAE, for which the “one-hybrid fitness for binding parS DNA” value is no more than 0.2.

WPRR: the “one-hybrid fitness for binding parS DNA” value is no more than 0.2.

With FCRL, the “one-hybrid fitness for binding parS DNA” value is no more than 0.2.

For the variant TCKY, the “one-hybrid fitness for binding parS DNA” value is no more than 0.2.

Turning to LGKR, the “one-hybrid fitness for binding parS DNA” value is no more than 0.2.

Take TKLC: the “one-hybrid fitness for binding parS DNA” value is no more than 0.2.

Regarding KENY, the “one-hybrid fitness for binding parS DNA” value was no more than 0.2.

Take NMRG: the “one-hybrid fitness for binding parS DNA” value is no more than 0.2.

In the case of FNSR, the “one-hybrid fitness for binding parS DNA” value was no more than 0.2.

FKKA: the “one-hybrid fitness for binding parS DNA” value is no more than 0.2.

For PMCL, the “one-hybrid fitness for binding parS DNA” value is no more than 0.2.

As to PMVK, the “one-hybrid fitness for binding parS DNA” value was no more than 0.2.

Regarding RSCF, the “one-hybrid fitness for binding parS DNA” value was 0.211.

Take HLIT: the “one-hybrid fitness for binding parS DNA” value is no more than 0.2.

Consider TQTM, for which the “one-hybrid fitness for binding parS DNA” value was no more than 0.2.

Take QGWV: the “one-hybrid fitness for binding parS DNA” value is no more than 0.2.

As to IADM, the “one-hybrid fitness for binding parS DNA” value was no more than 0.2.

Regarding ERKG, the “one-hybrid fitness for binding parS DNA” value was no more than 0.2.

As to VYHV, the “one-hybrid fitness for binding parS DNA” value was no more than 0.2.

As to VHMM, the “one-hybrid fitness for binding parS DNA” value is no more than 0.2.

On to AGST, for which the “one-hybrid fitness for binding parS DNA” value is no more than 0.2.

As to FSGG, the “one-hybrid fitness for binding parS DNA” value was no more than 0.2.

With NSKF, the “one-hybrid fitness for binding parS DNA” value was no more than 0.2.

As for QMSK, the “one-hybrid fitness for binding parS DNA” value is no more than 0.2.

For the variant TTNK, the “one-hybrid fitness for binding parS DNA” value was no more than 0.2.

For ALFR, the “one-hybrid fitness for binding parS DNA” value was no more than 0.2.

IKRR: the “one-hybrid fitness for binding parS DNA” value was no more than 0.2.

As for PWMC, the “one-hybrid fitness for binding parS DNA” value is no more than 0.2.

Take HAHG: the “one-hybrid fitness for binding parS DNA” value was no more than 0.2.

With RARS, the “one-hybrid fitness for binding parS DNA” value came to 0.908.

Take LNTH: the “one-hybrid fitness for binding parS DNA” value is no more than 0.2.

For the variant PCRV, the “one-hybrid fitness for binding parS DNA” value is no more than 0.2.

As to TPPV, the “one-hybrid fitness for binding parS DNA” value was no more than 0.2.

On to IATF, for which the “one-hybrid fitness for binding parS DNA” value is no more than 0.2.

Regarding SYPE, the “one-hybrid fitness for binding parS DNA” value is no more than 0.2.

For NMAS, the “one-hybrid fitness for binding parS DNA” value is no more than 0.2.

For CGMR, the “one-hybrid fitness for binding parS DNA” value was no more than 0.2.

For the variant DLNP, the “one-hybrid fitness for binding parS DNA” value is no more than 0.2.

Take KMNK: the “one-hybrid fitness for binding parS DNA” value is no more than 0.2.

For the variant SEDV, the “one-hybrid fitness for binding parS DNA” value is no more than 0.2.

As to PCWS, the “one-hybrid fitness for binding parS DNA” value was no more than 0.2.

As to TIPR, the “one-hybrid fitness for binding parS DNA” value was no more than 0.2.

Take RYRW: the “one-hybrid fitness for binding parS DNA” value is no more than 0.2.

RRWC: the “one-hybrid fitness for binding parS DNA” value is 0.739.

For the variant TYTM, the “one-hybrid fitness for binding parS DNA” value was no more than 0.2.

For the variant FRMT, the “one-hybrid fitness for binding parS DNA” value is no more than 0.2.

QLKH: the “one-hybrid fitness for binding parS DNA” value is no more than 0.2.

For the variant NHLD, the “one-hybrid fitness for binding parS DNA” value was no more than 0.2.

In the case of FGDS, the “one-hybrid fitness for binding parS DNA” value is no more than 0.2.

NYQS: the “one-hybrid fitness for binding parS DNA” value was no more than 0.2.

Take QNGG: the “one-hybrid fitness for binding parS DNA” value is no more than 0.2.

On to AAMW, for which the “one-hybrid fitness for binding parS DNA” value is no more than 0.2.

As for RKAM, the “one-hybrid fitness for binding parS DNA” value is 0.264.

Turning to TSTL, the “one-hybrid fitness for binding parS DNA” value is no more than 0.2.

Turning to ALEN, the “one-hybrid fitness for binding parS DNA” value is no more than 0.2.

Regarding RPRS, the “one-hybrid fitness for binding parS DNA” value was no more than 0.2.

For the variant KWAG, the “one-hybrid fitness for binding parS DNA” value was no more than 0.2.

In the case of HHHC, the “one-hybrid fitness for binding parS DNA” value is no more than 0.2.

As for LFRM, the “one-hybrid fitness for binding parS DNA” value is no more than 0.2.

As for WYCE, the “one-hybrid fitness for binding parS DNA” value was no more than 0.2.

As for STLI, the “one-hybrid fitness for binding parS DNA” value was no more than 0.2.

In the case of YKRT, the “one-hybrid fitness for binding parS DNA” value was no more than 0.2.
